Laboratory results taken from article PMC9911399, “Two distinct binding modes provide the RNA-binding protein RbFox with extraordinary sequence specificity”.
Numbering of substitutions follows the chain as printed; changes in the protein carry UniProt numbers. Some of the results follow.

B1: GUGGUAG (DNA:RNA)
RNA: GGGAGACCGGAAUUCAGAUUGUCCGUGGUAGUUAAAUCCCGUCGUAGCCACCA
DNA 1: CAATCTGAATTCCGGTCTCCC
DNA 2: TGGTGGCTACGACGGGATT
B2: UAUAAAG (DNA:RNA)
RNA: B1 RNA with G25U, U26A, G27U, G28A, U29A
DNA 1: CAATCTGAATTCCGGTCTCCC
DNA 2: TGGTGGCTACGACGGGATT
B3: AAGUACA (DNA:RNA)
RNA: B1 RNA with G25A, U26A, G28U, U29A, A30C, G31A
DNA 1: CAATCTGAATTCCGGTCTCCC
DNA 2: TGGTGGCTACGACGGGATT
B4: UUGGAUU (DNA:RNA)
RNA: B1 RNA with G25U, U29A, A30U, G31U
DNA 1: CAATCTGAATTCCGGTCTCCC
DNA 2: TGGTGGCTACGACGGGATT
B5: UAAUGUU (DNA:RNA)
RNA: GGGAGACCGGAAUUCAGAUUGUCCUAAUGUUUUAAAUCCCGUCGUAGCCACCA
DNA 1: CAATCTGAATTCCGGTCTCCC
DNA 2: TGGTGGCTACGACGGGATT
B6: CCAGACC (DNA:RNA)
RNA: B1 RNA with G25C, U26C, G27A, U29A, A30C, G31C
DNA 1: CAATCTGAATTCCGGTCTCCC
DNA 2: TGGTGGCTACGACGGGATT
B7: AUGCGUC (DNA:RNA)
RNA: B1 RNA with G25A, G28C, U29G, A30U, G31C
DNA 1: CAATCTGAATTCCGGTCTCCC
DNA 2: TGGTGGCTACGACGGGATT
B8: CAUAAAA (DNA:RNA)
RNA: B1 RNA with G25C, U26A, G27U, G28A, U29A, G31A
DNA 1: CAATCTGAATTCCGGTCTCCC
DNA 2: TGGTGGCTACGACGGGATT
B9: ACGGCCU (DNA:RNA)
RNA: B1 RNA with G25A, U26C, U29C, A30C, G31U
DNA 1: CAATCTGAATTCCGGTCTCCC
DNA 2: TGGTGGCTACGACGGGATT
B10: GCACACU (DNA:RNA)
RNA: B5 RNA with U25G, A26C, U28C, G29A, U30C
DNA 1: CAATCTGAATTCCGGTCTCCC
DNA 2: TGGTGGCTACGACGGGATT
B11: CGCCACC (DNA:RNA)
RNA: GGGAGACCGGAAUUCAGAUUGUCCCGCCACCUUAAAUCCCGUCGUAGCCACCA
DNA 1: CAATCTGAATTCCGGTCTCCC
DNA 2: TGGTGGCTACGACGGGATT
B12: UAUUCAG (DNA:RNA)
RNA: B5 RNA with A27U, G29C, U30A, U31G
DNA 1: CAATCTGAATTCCGGTCTCCC
DNA 2: TGGTGGCTACGACGGGATT
B13: CAGACCA (DNA:RNA)
RNA: B11 RNA with G26A, C27G, C28A, A29C, C31A
DNA 1: CAATCTGAATTCCGGTCTCCC
DNA 2: TGGTGGCTACGACGGGATT
B14: UAGUGGU (DNA:RNA)
RNA: B5 RNA with A27G, U30G
DNA 1: CAATCTGAATTCCGGTCTCCC
DNA 2: TGGTGGCTACGACGGGATT
B15: CGUGCGC (DNA:RNA)
RNA: B11 RNA with C27U, C28G, A29C, C30G
DNA 1: CAATCTGAATTCCGGTCTCCC
DNA 2: TGGTGGCTACGACGGGATT
B16: UUUCCCU (DNA:RNA)
RNA: B11 RNA with C25U, G26U, C27U, A29C, C31U
DNA 1: CAATCTGAATTCCGGTCTCCC
DNA 2: TGGTGGCTACGACGGGATT
B17: GACGCGA (DNA:RNA)
RNA: B1 RNA with U26A, G27C, U29C, A30G, G31A
DNA 1: CAATCTGAATTCCGGTCTCCC
DNA 2: TGGTGGCTACGACGGGATT
B18: CCGCCAA (DNA:RNA)
RNA: B11 RNA with G26C, C27G, A29C, C30A, C31A
DNA 1: CAATCTGAATTCCGGTCTCCC
DNA 2: TGGTGGCTACGACGGGATT
B19: UAUGUCA (DNA:RNA)
RNA: B1 RNA with G25U, U26A, G27U, A30C, G31A
DNA 1: CAATCTGAATTCCGGTCTCCC
DNA 2: TGGTGGCTACGACGGGATT
B20: AUGCCGC (DNA:RNA)
RNA: B11 RNA with C25A, G26U, C27G, A29C, C30G
DNA 1: CAATCTGAATTCCGGTCTCCC
DNA 2: TGGTGGCTACGACGGGATT
B21: CGCUUCA (DNA:RNA)
RNA: B11 RNA with C28U, A29U, C31A
DNA 1: CAATCTGAATTCCGGTCTCCC
DNA 2: TGGTGGCTACGACGGGATT
B22: CUCACAA (DNA:RNA)
RNA: B11 RNA with G26U, C28A, A29C, C30A, C31A
DNA 1: CAATCTGAATTCCGGTCTCCC
DNA 2: TGGTGGCTACGACGGGATT
B23: GCAAACC (DNA:RNA)
RNA: B11 RNA with C25G, G26C, C27A, C28A
DNA 1: CAATCTGAATTCCGGTCTCCC
DNA 2: TGGTGGCTACGACGGGATT
B24: ACGGCGC (DNA:RNA)
RNA: B1 RNA with G25A, U26C, U29C, A30G, G31C
DNA 1: CAATCTGAATTCCGGTCTCCC
DNA 2: TGGTGGCTACGACGGGATT
B25: UGUAAUC (DNA:RNA)
RNA: B11 RNA with C25U, C27U, C28A, C30U
DNA 1: CAATCTGAATTCCGGTCTCCC
DNA 2: TGGTGGCTACGACGGGATT
B26: AGACGAA (DNA:RNA)
RNA: B11 RNA with C25A, C27A, A29G, C30A, C31A
DNA 1: CAATCTGAATTCCGGTCTCCC
DNA 2: TGGTGGCTACGACGGGATT
B27: AGCAAAG (DNA:RNA)
RNA: B11 RNA with C25A, C28A, C30A, C31G
DNA 1: CAATCTGAATTCCGGTCTCCC
DNA 2: TGGTGGCTACGACGGGATT
B28: CCGGACA (DNA:RNA)
RNA: B11 RNA with G26C, C27G, C28G, C31A
DNA 1: CAATCTGAATTCCGGTCTCCC
DNA 2: TGGTGGCTACGACGGGATT
B29: UAUAAGU (DNA:RNA)
RNA: B5 RNA with A27U, U28A, G29A, U30G
DNA 1: CAATCTGAATTCCGGTCTCCC
DNA 2: TGGTGGCTACGACGGGATT
B30: UCAGAGA (DNA:RNA)
RNA: B5 RNA with A26C, U28G, G29A, U30G, U31A
DNA 1: CAATCTGAATTCCGGTCTCCC
DNA 2: TGGTGGCTACGACGGGATT
B31: AGAAGUG (DNA:RNA)
RNA: B5 RNA with U25A, A26G, U28A, U31G
DNA 1: CAATCTGAATTCCGGTCTCCC
DNA 2: TGGTGGCTACGACGGGATT

What follows are binders tested against T1, RBFOX1 RRM RbFoxmut (Fox-RRM*) (Homo sapiens, UniProt Q9NWB1 109-208, R118D;E147R;N151S;E152T) (assay: EMSA; HiTS-Eq, 1 nM pool, 10 min; buffer printed only for the single-RNA assays: 10 mM Tris pH 7.5, 150 mM NaCl, 3.4 mM EDTA, 0.001% NP-40, 30 C). Details: tags: His6 N-terminal (pET28a); label: 5' 32P.
T1 sequence: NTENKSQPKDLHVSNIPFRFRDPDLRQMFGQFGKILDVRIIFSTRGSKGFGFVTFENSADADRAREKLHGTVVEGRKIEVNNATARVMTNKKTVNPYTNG
Outline: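 Relative association constants, normalised to the cognate motif, were derived by comparing read counts of each RNA species with those of the control reaction. The RNA sequenced was the free fraction, separated by 8% native PAGE after a 10 min equilibration in 50 µL of 1 nM 5′-radiolabelled RNA (7 randomized nucleotides) with increasing concentrations of purified wild-type or mutant RbFox RRM.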

Row | Binder | binding signal
1 | B1 | 0.181 KA relative to UGCAUGU
2 | B2 | 0.0905 KA relative to UGCAUGU
3 | B3 | 0.0952 KA relative to UGCAUGU
4 | B4 | 0.106 KA relative to UGCAUGU
5 | B5 | 0.0816 KA relative to UGCAUGU
6 | B6 | 0.11 KA relative to UGCAUGU
7 | B7 | 0.17 KA relative to UGCAUGU
8 | B8 | 0.0891 KA relative to UGCAUGU
9 | B9 | 0.0862 KA relative to UGCAUGU
10 | B10 | 0.0704 KA relative to UGCAUGU
11 | B11 | 0.0697 KA relative to UGCAUGU
12 | B12 | 0.106 KA relative to UGCAUGU
13 | B13 | 0.0712 KA relative to UGCAUGU
14 | B14 | 0.158 KA relative to UGCAUGU
15 | B15 | 0.108 KA relative to UGCAUGU
16 | B16 | 0.0509 KA relative to UGCAUGU

Row | Binder | binding signal
17 | B17 | 0.0881 KA relative to UGCAUGU
18 | B18 | 0.0996 KA relative to UGCAUGU
19 | B19 | 0.0977 KA relative to UGCAUGU
20 | B20 | 0.11 KA relative to UGCAUGU
21 | B21 | 0.119 KA relative to UGCAUGU
22 | B22 | 0.063 KA relative to UGCAUGU
23 | B23 | 0.0564 KA relative to UGCAUGU
24 | B24 | 0.119 KA relative to UGCAUGU
25 | B25 | 0.157 KA relative to UGCAUGU
26 | B26 | 0.0675 KA relative to UGCAUGU
27 | B27 | 0.0925 KA relative to UGCAUGU
28 | B28 | 0.0596 KA relative to UGCAUGU
29 | B29 | 0.0883 KA relative to UGCAUGU
30 | B30 | 0.0855 KA relative to UGCAUGU
31 | B31 | 0.142 KA relative to UGCAUGU
